From PubChem BioAssay AID1240 (Sanford-Burnham Center for Chemical Genomics, 2008)
Several values for one entry are separate records, joined by “and”; a condition that tells them apart may be missing. Identical values can stand only once. In all, about 50,000 compounds went through this assay and about 800 (1.6%) showed an effect of 50% or more. Some of the results follow.

biological target: Bcl-2-like protein 10 (Homo sapiens) (UniProt Q9HD36); experiment: Phenotype converters, Bcl-B/TR3 peptide binding displacement, primary biochemical FP (AID 1240); settings: GST-Bcl-B / FITC-TR3 peptide fluorescence polarization; stronger effect = higher value; compound at 3.75 mg/L;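 further: 0% = Bcl-B with tracer peptide and DMSO and 100% = tracer peptide lacking Bcl-B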
UniProt Q9HD36, sequence (Q9HD36 whole entry, looked up): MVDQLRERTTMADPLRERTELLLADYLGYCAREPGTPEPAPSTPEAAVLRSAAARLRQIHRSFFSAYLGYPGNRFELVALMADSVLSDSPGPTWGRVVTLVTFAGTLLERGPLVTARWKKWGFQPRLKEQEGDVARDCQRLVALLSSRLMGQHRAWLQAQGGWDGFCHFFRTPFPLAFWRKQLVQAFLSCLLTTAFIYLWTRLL

Structure (SMILES) | displacement
CCN(CC)C(=O)/C=C/c1ccc(OC)c(S(=O)(=O)N2CCCCC2)c1 | -4.9%
O=C1NC(=O)N(c2ccccc2)C(=O)/C1=C/c1cccc(O)c1 | 2.8%
C=CCNC(=S)Nc1ccc(NC(C)=O)cc1 | -5.8%
Fc1ccc(NC(=S)Nc2ccc(Nc3ccccc3)cc2)cc1 | -14.9%
O=C(c1cc2nc(-c3ccc(F)cc3)cc(C(F)(F)F)n2n1)N1CCOCC1 | 5.2%
CC(=O)Nc1cc(I)cc(C(=O)O)c1 | -16.2%
COc1ccc(OC(C)C(=O)Nc2ccc(Cl)cc2)cc1 (stereo not drawn) | 10.5%
COc1cc(OC)c(OC)cc1CN1CCN(Cc2ccccn2)CC1 | -5.1%
COCC(C)NCc1ccc2c(c1)OCO2 (stereo not drawn) | 2.4%
Oc1ccccc1-c1cc(-c2ccccc2)nc(N/N=C/c2ccc(F)cc2)n1 | -6.1%
CCCS(=O)(=O)c1c(S(=O)(=O)CCC)c2ccccn2c1C(=O)c1ccc([N+](=O)[O-])cc1 | 16.4%
Cc1c(NS(=O)(=O)c2cc(Cl)ccc2Cl)c(=O)n(-c2ccccc2)n1C | 12.2%
CC1(C)CC(NC(=O)C(=O)Nc2ccccc2)CC(C)(C)N1 | 10.9%
CCOc1cc(-c2ccc(O)cc2)cc(=O)c2c(C)oc(C)c12 | 26.1%
Nc1nnc(Cc2ccccc2F)s1 | -12.1%
Cn1c(=O)c([N+](=O)[O-])c(NCc2ccccc2)c2ccccc21 | 6.6%
COc1ccc(/C=C2\C=C(c3ccc(Cl)cc3)OC2=O)c(OC)c1 | 25.2%
O=C(COc1ccc2ccccc2c1)Nc1ccc(O)c(-c2nc3ccccc3o2)c1 | 13.4%
COc1ccc(-c2nc(=S)[nH][nH]2)cc1 | -22.6% and -2.1%
COc1ccc(NC(=O)/C=C/c2ccccc2Cl)c(OC)c1 | 2.5%
Cc1cc(Cl)ccc1OCC(=O)Nc1ccc([N+](=O)[O-])cc1 | -4.5%
O=C(CCC1CCCC1)Nc1nc(-c2ccc(Cl)cc2)cs1 | 0.6%

Structure (SMILES) | displacement
CCOC(=O)c1c(-c2ccc(F)cc2)csc1NC(=O)C1CCCCC1C(=O)O (stereo not drawn) | -12.9%
CCN(CC)CCCOc1ccc(C)cc1Cl | 4.6%
CC1CCN(c2cccc3c2C(=O)c2ccccc2C3=O)CC1 | 15.4%
CC1=C(C(=O)Nc2ccc(C)cc2)C(c2cccc(Br)c2)NC(=S)N1 (stereo not drawn) | -3.3%
Cc1cc(C=C2C(=O)c3ccccc3C2=O)c(C)n1-c1ccc(Cl)cc1 | 100%
COc1cc2c(C(=O)O)c(C)n(C)c2c2ccccc12 | 9.6%
O=C(c1ccc(F)cc1)N1CCc2ccccc21 | 12.4%
CCOc1ccc(C(=O)Nc2ccc(OC)c(OC)c2)cc1 | -1.2%
COc1ccc(NC(=O)CN(c2ccc(C(C)C)cc2)S(=O)(=O)c2ccccc2)cc1OC | 2.8%
O=C(COc1ccc(Cl)cc1Br)NNC(=O)c1ccc(O)cc1 | -10.8%
Cc1cc(C)c(NC(=O)c2cccc(N3C(=O)c4ccc(C(=O)Nc5c(C)cc(C)cc5C)cc4C3=O)c2)c(C)c1 | 10.9%
O=C1NC(=S)S/C1=C\c1ccc(OS(=O)(=O)c2cccc([N+](=O)[O-])c2)cc1 | 34.4%
Cc1ccc(NCC(O)COc2ccc(OCC(O)CNc3ccc(C)cc3C)cc2)c(C)c1 (stereo not drawn) | 15.4%
COc1cc(/C=N/NC(=O)c2cccnc2)cc2c1OCO2 | 5.2%
COC(=O)CN(c1ccccc1F)S(C)(=O)=O | 13.8%
O=C(NNc1nc(-c2ccccc2)c2cc(Br)ccc2n1)c1ccccc1 | -12.9%
CC(C)COc1ccc(C(=O)Nc2ccc(Cl)cc2Cl)cc1 | 11.6%
O=C(COc1ccc(Br)cc1)Nc1ccc2oc(-c3cccnc3)nc2c1 | 12.9%
Cc1c(Cl)cccc1NC1CS(=O)(=O)CC1O (stereo not drawn) | -0.9%
CCCc1[nH]n(-c2nc3ccccc3s2)c(=O)c1C=NCCc1ccccc1 | -1%
CC1=C(C(=O)Nc2ccc(C)cc2)C(c2ccc(F)cc2)NC(=O)N1 (stereo not drawn) | -2.2%
O=C(O)c1cccc2c(=O)oc3ccccc3c12 | -6.8%

Structure (SMILES) | displacement
COc1ccc(CSc2nnc(SCc3ccc(OC)c(F)c3)s2)cc1F | 13.5%
CC(C)CC(=O)Nc1nnc(Cc2ccc(Cl)cc2Cl)s1 | 5.3%
COc1ccc(/C=N/Nc2ccccc2)cc1O | 16%
O=C(/C=C/c1ccc(-c2ccccc2[N+](=O)[O-])o1)Nc1ccc(-c2nc3ccccc3o2)cc1 | 1.9%
COc1cc(OC)c(/C=C2\C(=O)NC(=O)N(c3cccc(C)c3)C2=O)cc1Br | 12.6%
Cc1ccc(/C=C2\SC(N3CCN(C)CC3)=NC2=O)cc1 | -6%
Cc1cc(C)c(NC(=O)COc2ccc(Br)c(C)c2)c(C)c1 | -7.9%
CCN1C(=O)/C(=C\c2cc(Cl)c(OCCOc3cccc(OC)c3)c(OC)c2)SC1=S | 2.9%
O=c1oc2ccccc2cc1-c1nc(-c2ccc(Cl)c(Cl)c2)cs1 | 61.2%
CCC(C)c1ccc(OCCOc2ccc(Cl)cc2/C=N/n2cnnc2)cc1 (stereo not drawn) | -0.3%
N/C(=N/c1nc2ccccc2o1)NC(=O)c1ccccc1[N+](=O)[O-] | -14.9%
COc1cccc(C2C(C(=O)Nc3ccccc3)=C(C)N=c3s/c(=C\c4ccc(N5CCOCC5)o4)c(=O)n32)c1 (stereo not drawn) | 6.9%
CCOc1ccc(NC(=O)c2cc(Br)ccc2Cl)cc1 | 15%
Nc1nc(-c2cccs2)c(NC(=O)c2ccccc2)s1 | 8.5%
CC1=C(C(=O)Nc2ccccc2C)C(c2ccc(Cl)cc2Cl)NC(=O)N1 (stereo not drawn) | 7.5%
Cc1ccc(C)c(C(=O)CSc2ncn[nH]2)c1 | 10.1%
CC(C)CC(=O)NS(=O)(=O)c1ccc(NS(C)(=O)=O)cc1 | 12.6%
Cc1cc(C)cc(NS(=O)(=O)c2cccc([N+](=O)[O-])c2)c1 | -1.3%
Cc1ccc(S(=O)(=O)Nc2ccc3c(c2)ncn3-c2ccccc2)cc1 | 7.2%
COc1cc(C(=O)Nc2cccc3nsnc23)cc(OC)c1OC | 22.7%
COc1cc([N+](=O)[O-])ccc1NC(=O)C(C)C | 5.3%
O=C(CSc1nc2ccccc2c(=O)n1-c1ccccc1)Nc1ccc([N+](=O)[O-])cc1 | 2.3%

Structure (SMILES) | displacement
CCC(=O)Nc1sc2c(c1C(=O)Nc1ccc(OC)cc1)CCC2 | 13.8%
O=C(O/C(=C/c1nccn1Cc1ccccc1Cl)c1ccc(F)cc1)c1ccc(F)cc1 | -13.6%
O=C(Nc1ccc(Br)cc1)c1ccc(Cl)cc1Cl | -9.7%
Cc1ccc(S(=O)(=O)ON2C(=O)c3ccccc3C2=O)cc1 | -6.3%
O=C(Nc1ccc(O)cc1)c1ccc2c(c1)C(=O)N(c1ccc([N+](=O)[O-])cc1)C2=O | 15.4%
Cc1nc(N)sc1-c1csc(Nc2ccc(S(N)(=O)=O)cc2)n1 | 8.2%
COC(=O)c1c(NC(=O)c2ccc(C)cc2)sc2c1CCCCC2 | -9.3%
CCOc1ccc2ccccc2c1/C=N\NC(=O)c1ccc([N+](=O)[O-])cc1 | 6.5%
NC(=O)/C=C/c1cn(-c2ccccc2)nc1-c1ccccc1 | 7.3%
COc1cc2c(cc1OC)C(c1cc([N+](=O)[O-])ccc1OC(C)=O)N(C(C)=O)CC2 (stereo not drawn) | 13.9%
Cc1ccc(NC(=O)c2ccc(C#Cc3ccccc3)cc2)cc1C | 9.4%
CCCC(=O)NC(c1cccc([N+](=O)[O-])c1)c1ccc2cccnc2c1O (stereo not drawn) | 5.2%
O=C(CCc1ccccc1)Nc1ccc(Cl)c([N+](=O)[O-])c1 | -0.7%
CC(C)CCC(C(N)=O)C1=NC(C)(C)Cc2ccccc21 (stereo not drawn) | 3.8%
COc1ccc(Cl)cc1NC(=O)CN(c1cccc([N+](=O)[O-])c1)S(=O)(=O)c1ccccc1 | 3.9%
Cc1ccc(C(=O)NC(=S)Nc2ccc3oc(-c4ccccc4)nc3c2)cc1 | 7.1%
CC1=NN(c2cccc(C(=O)O)c2)C(=O)/C1=C\c1ccc(-c2ccc([N+](=O)[O-])cc2)o1 | -0.9%
COc1ccc(C2(C)SC(NC(C)=O)=NN2C(C)=O)cc1 (stereo not drawn) | 8.2%
COc1ccc(/C=C2/C(=O)NN(c3ccc(C)cc3)C2=O)cc1Br | 9.4%
CC(C)COc1ccc(C(=O)Nc2sc3c(c2C(N)=O)CCCCCC3)cc1 | -6.4%
Cc1ccc(/C=C2\SC(N3CCC(C)CC3)=NC2=O)cc1 | -15%
C#CCOc1c(Cl)cc(/C=C2\C(=O)NC(=O)N(c3ccc(C)cc3)C2=O)cc1OCC | -13.6%

Structure (SMILES) | displacement
O=[N+]([O-])c1ccc(-n2cccn2)c(-c2nn[nH]n2)c1 | -0.5%
CCOc1ccc(C(=O)Nc2ccc(NC(=O)c3cc4ccccc4o3)c(OC)c2)cc1[N+](=O)[O-] | -1.3%
O=C(CCN1CCC(c2ccccc2)C1)c1ccc2c(c1)OCCO2 (stereo not drawn) | -0.5%
COc1ccc(/C=C(\NC(=O)c2ccccc2Br)C(=O)O)cc1 | -8.9%
CN(c1ccc(C(=O)NCCSCc2cccc(Cl)c2)cc1)S(=O)(=O)c1ccccc1 | -3.5%
O=C(NCc1ccc2c(c1)OCO2)Nc1ccc(Cl)c(Cl)c1 | -5.3%
CCOC(=O)c1cnc2c(-c3ccccc3)c(C)nn2c1C | -0.2%
Cc1c(C(=O)N2CCC(Cc3ccccc3)CC2)cccc1[N+](=O)[O-] | -8.4%
COc1cc(C2NC(=O)NC(C)=C2C(=O)Nc2ccc(C)cc2)ccc1O (stereo not drawn) | 2.3%
CCC1CCc2c(sc3nc(SCC(=O)NCc4ccco4)n(-c4ccccc4)c(=O)c23)C1 (stereo not drawn) | -11.7%
CCc1ccc2oc(-c3cccc(NC(=O)c4ccccc4Br)c3)nc2c1 | -12%
CCCOn1nnc2ccc([N+](=O)[O-])cc21 | -8.7%
COc1cc(N=Cc2c(O)n(-c3ccccc3F)c(=O)[nH]c2=O)cc(OC)c1 | 4.2%
Cc1ccc(S(=O)(=O)NC(=O)N2CCN(Cc3ccccc3)CC2)cc1 | 11.4%
COc1ccccc1C(=O)Nc1nnc(C(C)(C)C)s1 | -11.4%
COc1ccc2ccccc2c1/C=N/NC(=O)c1cc(C)[nH]n1 | 35.8%
O=C1NC(=Nc2cccc(O)c2)S/C1=C\c1ccc(F)cc1 | 75.8%
Cc1nonc1C(=O)N/N=C/c1ccc2c(c1)OCO2 | 0.5%
CCOc1ccccc1C=NN1CCN(c2ccc(Cl)cc2)CC1 | -21%
COc1ccc(C(=O)Nc2ccc(Cl)cn2)cc1Br | 10%
